From PubChem BioAssay AID1508649 (National Center for Advancing Translational Sciences (NCATS), 2021)
Screen size: about 43,000 compounds; about 830 (1.9%) were called active. Inconclusive results, whose numbers are uncertain, are shown with a selection of clear calls. How the source made its calls: active means clear falling dose curves in both reporters; inconclusive means both reporters move, but less clearly or upward; inactive means either reporter flat; the % is the NLuc reporter signal. No potency is given beside an inconclusive call; the fits are too rough.

assay: Cell-based coincidence reporter assay to measure PMP22 gene transcription in S16 Pmp22-F2sN cells - Primary screen; conditions: S16 Pmp22-F2sN Schwann cells (luciferase reporters placed in the Pmp22 gene), FLuc/NLuc coincidence luminescence, 24 h; measured here: NLuc reporter readout, at 57.5 µM (top of the series); activity change, negative = inhibition: at the top concentration
From the text: Assay Provider: Jim Inglese Ph.D. National Center for Advancing Translational Science, National Institutes of Health, Rockville, MD CMT is a heterogeneous group of neurological disorders that affect approximately 1 in 2,500 people. In particular, the most common form of CMT, CMT1A is genetically linked to the duplication of the PMP22 gene which leads to Schwann cell overexpression, thus manifesting itself as a typical case of dose-sensitive diseases. To identify small molecule compounds that can mediate the expression of PMP22 we developed a phenotypic assay screening strategy by utilizing genome editing techniques to construct Schwann cell lines containing novel reporter technology to monitor the transcriptional or translational regulation of PMP22. For high sensitivity we use a bioluminescent reporter system embedded in the 3' UTR of the PMP22 gene (S16(c9) Pmp22-F2sN) to identify compounds that inhibit gene expression. […] We can further discriminate the effect of all transcriptionally active molecules on PMP22 translation or stability with an assay that incorporates a short NLuc peptide (HiBiT) at the C-terminus of expressed PMP22 (S16(f8) PMP22-HiBiT) allowing alpha complementation and luminescence detection of membrane-associated PMP22 protein. These assays were screened against the NCATS Sytravon Library Collection. Miniaturization of these assays to 1536-well plate format for quantitative high throughput screening (qHTS) yielded rich data sets immediately from the qHTS assay (S16(c9) Pmp22-F2sN), when compared with data from a cell viability assay (Cell TiterGlo) to identify compounds that decreased the output signals through cellular toxicity to streamline the selection process of actives for subsequent characterization using the HiBiT assay (S16(f8) PMP22-HiBiT).
Cell-based coincidence reporter assay to measure PMP22 gene transcription in S16 Pmp22-F2sN cells PROTOCOL TABLE (format as described by Inglese J, Shamu CE and Guy RK. 2007) SEQUENCE No. (e.g., 1, 2, 3, etc.); […] (e.g., Cells, Incubation, Reagent, etc.); VALUE and DESCRIPTION. 1. Cells. Add 500-1,000 cells in 4 uL in growth media (DMEM High Glucose, No Phenol Red media + 10% heat-inactivated FBS + 1% Pen/Strep supplemented media) per well into Greiner 1536-well white/solid bottom high base, TC-treated plates. 2. Compounds. Library compounds and controls added at 23nL per well, transferred by Pin Tool. 3. Incubation. Incubate plates at 37C, 5% CO2, 95% RH for 24 h. 4. Reagent. Add 3.5uL Nano-Glo Dual-Luciferase Reporter Assay System reagent 1: Lysis and FLuc reagent per well of Greiner 1536-well plates. 5. Incubation. Incubate plates at room temperature for 10 min., protect from light. 6. Detector. FLuc luminescence measured using CCD-based camera (Viewlux). 7. Reagent. Add 3.5uL Nano-Glo Dual-Luciferase Reporter Assay System reagent 2: Stop&Glo reagent per well of Greiner 1536-well plates. 8. Incubation. Incubate plates at room temperature for 10 min., protect from light. 9. Detector. NLuc luminescence measured using CCD-based camera (Viewlux). NOTES (numbers refer to Sequence numbers above; values are from representative experiments) 6. Luminescence Read #1 (FLuc): Clear filter; Exposure = 10 sec, Gain = High, Speed = Slow, Binning = 2X 9. Luminescence Read #2 (NLuc): Clear filter; Exposure = 1 sec, Gain = High, Speed = Slow, Binning = 2X REFERENCES: 1. Inglese J, Shamu CE and Guy RK, Reporting data from high throughput screening of small molecule libraries, Nature Chemical Biology, 2007, 3(8): 438-441. doi.org/10.1038/nchembio0807-438 2. Yasgar A, Shinn P, Jadhav A, Auld DS, Michael S, Zheng W, Austin CP, Inglese J and Simeonov A, Compound Management for Quantitative High-Throughput Screening. J. Assoc. Lab. Auto., 2008, 13: 79-89. doi: 10.1016/j.jala.2007.12.004
On the % scale 0 is the no-effect control and ±100 the full control effect; potency means the concentration at half of the fitted maximal effect; tags describe the fitted curve by direction and shape.

Structure (SMILES)	Potency	activity change, negative = inhibition
CCOCCCNC(=O)c1ccc(-n2c(-c3ccccc3)cc3c2CCC(C)C3)cc1 (centres undefined)	active: 17.9 µM	–
CCCc1ccc(S(=O)(=O)N2CCC(c3nnc(-c4cccc(C)c4)o3)CC2)cc1	inconclusive [phenotype inactive, partial curve]	–
COc1ccc(OC)c(CNC(=O)c2ccc3nc(C(C)C)oc3c2)c1	–	inactive: 1.83%
CCOc1ccc(Br)cc1C1C(C(=O)OC)=C(C)NC2=C1C(=O)c1ccccc12 (centres undefined)	–	inactive: -1.04%
CCOc1ccc(N2CC(c3nc4ccccc4n3CCCCOc3ccc(OC)cc3)CC2=O)cc1 (centres undefined)	inconclusive [phenotype inactive, single point]	–
COc1ccc(-c2onc(C)c2C)cc1S(=O)(=O)Nc1cccc(C#N)c1	inconclusive [phenotype inactive, partial curve, poor fit]	–
O=C(C1CCCN(S(=O)(=O)c2cccc3nonc23)C1)N1CCN(c2ccccc2Cl)CC1 (centres undefined)	inconclusive [phenotype inactive, partial curve]	–
COCCCNC(=O)c1ccc(Cn2c(=O)c3ccccc3n(Cc3ccccc3C)c2=O)cc1	inconclusive [phenotype inactive, partial curve]	–
CN(C)CCNC(=O)CCCn1c(=O)c2cccn2c2ccccc21	–	inactive: -26.6%
Brc1ccc(-c2noc(-c3ccccc3)n2)o1	–	inactive: -13.7%
COc1ccc(C)cc1NS(=O)(=O)c1c(C)nc2sc(C)cn2c1=O	–	inactive: -34%
Cc1cc(O)c(C(c2ccc(Cl)cc2)N2CCN(c3ccccc3)CC2)c(=O)n1Cc1ccco1 (centres undefined)	inconclusive [phenotype inactive, partial curve, poor fit]	–
Fc1ccc(-c2cn3cc(Cc4ccccc4Cl)sc3n2)cc1	–	inactive: -3.62%
Cc1ccc(NC(=O)/C(C#N)=C/c2cc(C)n(-c3ccc(Br)cc3)c2C)cc1C	active: 11.9 µM	–
COc1ccc2c(Sc3ccccc3)c(C(=O)NCC(C)c3ccccc3)[nH]c2c1 (centres undefined)	–	inactive: -12.3%
CCC(=O)N1CCc2cc(CNS(=O)(=O)c3c(C)cc(C)cc3C)ccc21	inconclusive [phenotype inactive, single point]	–
CCCCCCNc1nc2c(c(=O)n(C)c(=O)n2C)n1Cc1cccc(C)c1	inconclusive [phenotype inactive, full curve]	–
CCOC(=O)c1scc(-c2ccccc2)c1S(=O)(=O)Nc1ccc(N(C)C)cc1	inconclusive [phenotype inactive, single point]	–
CCS(=O)(=O)N1CC(=O)N(c2ccc(Cl)cc2C)C(C)(C(=O)NC2CCCCCC2)C1 (centres undefined)	inconclusive [phenotype inactive, partial curve, poor fit]	–
CCCCCOc1c(Cl)cc(C(=O)N(Cc2ccc(C)o2)C2CCS(=O)(=O)C2)cc1Cl (centres undefined)	inconclusive [phenotype inactive, single point]	–

Structure (SMILES)	Potency	activity change, negative = inhibition
COc1ccccc1-c1nc2c(c(SCC(=O)Nc3ccc(C)c(C)c3)n1)Cc1c(CO)cnc(C)c1O2	active: 17 µM	–
COc1ccc(CCNC(=O)CCCn2c(=O)c3ccccc3n(CC(=O)Nc3cc(Cl)ccc3C)c2=O)cc1OC	inconclusive [phenotype inactive, single point]	–
CCCCN1C(=O)C(O)(c2c[nH]c3ccccc23)c2cc(Br)ccc21 (centres undefined)	inconclusive [phenotype inactive, single point]	–
COc1cccc(-c2nc(SCC(=O)Nc3ccc4c(c3)OCCO4)c(-c3ccccc3)[nH]2)c1	inconclusive [phenotype inactive, single point]	–
CCOCCc1nn2c(=O)cc(COC(=O)c3ccccc3NC(=O)C3CCCCC3)nc2s1	inconclusive [phenotype inactive, single point]	–
Cc1ccc(-c2onc(C)c2C)cc1S(=O)(=O)N1c2ccccc2CC1C (centres undefined)	inconclusive [phenotype inactive, partial curve, poor fit]	–
COc1ccc(C(=O)N2c3ccccc3C(C)(c3ccc(Cl)cc3)CC2(C)C)cc1 (centres undefined)	inconclusive [phenotype inactive, single point]	–
Cc1ccc(CS(=O)(=O)c2ncc(Cl)c(C(=O)Nc3nc4ccc(C)cc4s3)n2)cc1	active: 6.48 µM	–
COc1ccccc1OCCSc1nc2ccccc2n1CC(=O)N1CCOCC1	–	inactive: 22.3%
COc1ccccc1C(=O)NCCn1cc(SCC(=O)Nc2ccccc2F)c2ccccc21	inconclusive [phenotype inactive, single point]	–
CCCCN(CC)C(=O)CSc1nc2n[nH]c(C)c2c(=N)n1-c1cccc(Cl)c1	active: 13.4 µM	–
CC(=O)c1ccc(NC(=O)c2nc3ccccc3nc2N2CCCCC2)cc1	–	inactive: -17.9%
CCOC(=O)c1cc2c(=O)n3ccccc3nc2n(CCOC)c1=NC(=O)c1c(-c2ccccc2Cl)noc1C	inconclusive [phenotype inactive, single point]	–
CCc1nc2nc(C)c(NS(=O)(=O)c3ccc(C(C)(C)C)cc3)c(=O)n2[nH]1	–	inactive: 25%
Cc1ccc(-n2nc3ccc(NC(=O)COc4ccccc4C)cc3n2)cc1	inconclusive [phenotype inactive, single point]	–
CC(=O)c1ccc(N2CCN(C(=O)C3CCCN(S(=O)(=O)c4ccc(Br)s4)C3)CC2)cc1 (centres undefined)	inconclusive [phenotype inactive, partial curve]	–
CC(=O)Nc1cccc(NC(=O)CSc2cn(CC(=O)N(C(C)C)C(C)C)c3ccccc23)c1	inconclusive [phenotype inactive, single point]	–
CCc1ccccc1NC(=O)CSc1ncc(S(=O)(=O)c2ccccc2)c(N)n1	–	inactive: -18.3%
COc1ccc(CCNC(=O)c2cc(Nc3cc(C)cc(C)c3)nc3ccccc23)cc1OC	inconclusive [phenotype inactive, partial curve]	–
